Reference: publication PMC6919601, “Identification of Plasmodium dipeptidyl aminopeptidase allosteric inhibitors by high throughput screening” (PLoS ONE, 2019)
Out of some 110,000 compounds screened, about 230 (0.21%) showed an effect of 50% or more. The list shows a part of the results.

These molecules were tested against DPAP1 (Plasmodium falciparum, UniProt Q8IIJ9) (assay: primary screen, percent inhibition; read by cleavage of a fluorogenic dipeptide substrate; higher = more effect of the substance).
Set-up: species or system P. falciparum D10 trophozoite lysates; single well
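Further: 30 min substrate incubation versus DMSO and 10 µM JCP410 controls.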

Chain of DPAP1 (Q8IIJ9 whole entry, looked up): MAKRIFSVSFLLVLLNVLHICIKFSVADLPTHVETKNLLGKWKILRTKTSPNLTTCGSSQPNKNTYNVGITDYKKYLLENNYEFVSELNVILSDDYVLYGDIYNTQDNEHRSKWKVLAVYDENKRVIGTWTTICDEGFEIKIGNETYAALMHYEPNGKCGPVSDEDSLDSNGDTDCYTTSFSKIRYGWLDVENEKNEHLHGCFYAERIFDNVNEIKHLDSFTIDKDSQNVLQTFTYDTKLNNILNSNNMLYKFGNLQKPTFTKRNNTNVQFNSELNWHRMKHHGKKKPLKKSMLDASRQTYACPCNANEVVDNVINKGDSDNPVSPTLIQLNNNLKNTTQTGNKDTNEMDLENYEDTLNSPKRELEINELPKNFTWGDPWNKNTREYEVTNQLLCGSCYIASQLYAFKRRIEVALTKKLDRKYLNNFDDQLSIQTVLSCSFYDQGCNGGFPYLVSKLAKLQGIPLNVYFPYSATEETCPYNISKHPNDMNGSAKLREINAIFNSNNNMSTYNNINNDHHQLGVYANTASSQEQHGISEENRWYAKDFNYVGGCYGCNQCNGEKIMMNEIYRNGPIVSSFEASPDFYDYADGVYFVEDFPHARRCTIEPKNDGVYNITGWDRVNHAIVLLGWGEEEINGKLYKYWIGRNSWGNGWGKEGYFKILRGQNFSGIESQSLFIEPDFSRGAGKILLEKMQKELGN

Row | Structure (SMILES) | % Inhibition @ 10 uM [%]
1 | O=C1CCN(c2ccccc2Br)N1 | -2.74
2 | CC(C)C(NCc1c(Cl)cccc1Cl)C(=O)O (stereo not shown) | -1.99
3 | COc1ccccc1NC(=O)Cn1nc(C(F)(F)F)cc1C1CC1 | 4.83
4 | CC(=O)Nc1sc2c(c1C(=O)O)CC(C)(C)OC2 | 0.0539
5 | CCN1CCN(C(=O)/C(=C/c2cccs2)NC(=O)c2ccccc2)CC1 | 4
6 | Nc1nc(NC23CC4CC(CC(C4)C2)C3)nc(-c2cc(Cl)ccc2O)n1 | -6.02
7 | O=C(NCc1ccccc1Cl)C1CCCN1S(=O)(=O)c1ccc(-c2ccc(O)nn2)s1 (stereo not shown) | 0.0065
8 | Cc1ccc(N2C(=O)CC(N3CCN(C)CC3)C2=O)cc1 (stereo not shown) | 2.01
9 | COc1ccc2nc(C)cc(Nc3ccc(N4CCN(C)CC4)cc3)c2c1 | 5.16
10 | Cc1cccc(OCCCC(=O)Nc2nnc(C(C)C)s2)c1 | -4.93
11 | CC(C)(C)C1CCc2c(sc(NC(=O)c3ccc(Br)o3)c2C(N)=O)C1 (stereo not shown) | -1.43
12 | O=C(NC1CCc2ccccc21)c1cc2c(s1)CCC2 (stereo not shown) | -1.07
13 | CCOC(=O)C1CCN(Cc2ccc(F)c(Br)c2)CC1 | 1.63
14 | O=C1/C(=C/c2ccccc2)N=C(NCc2ccccc2)N1c1ccccc1 | -5.23
15 | CC1CCC(NC(=O)Cn2ncc3c4ccccc4n(C)c3c2=O)CC1 (stereo not shown) | -5.72
16 | CS(=O)(=O)N(CC(=O)N1CCN(c2ccccc2)CC1)c1cccc2ccccc12 | -11.7
17 | Cc1ccccc1NC(=O)c1c(N)sc2c1CCC2 | 30.2
18 | CC(=O)N1CCN(Cc2c(F)cccc2F)CC1 | 3.48
19 | N#Cc1c(N)nc(SCC(=O)c2ccc(Br)cc2)c(C#N)c1-c1ccc(O)cc1 | 5.64
20 | CN1C(=O)NC(=O)/C(=C/c2ccc(I)o2)C1=O | 1.42
21 | CC(c1ccccc1)N1C(=O)c2ccc(C(=O)c3ccc(C(=O)O)cc3)cc2C1=O (stereo not shown) | 5.92
22 | COc1ccccc1C(=O)Nc1ccc(-c2nc3cc(C)ccc3o2)cc1 | -7.87
23 | CCOC(=O)c1c(C)c(-c2ccccc2)n(CC(=O)N2CCC(C)CC2)c1C | 7.84
24 | Cc1nn(C)cc1CNC(=O)c1cc2nc(-c3ccc(Cl)cc3)cc(C(F)(F)F)n2n1 | -8.33
25 | CCN(CC)CCCOc1ccccc1Br | -1.64
26 | CC(C)N1C(=O)/C(=C\c2ccccc2O)S/C1=N/c1ccccc1 | 43.5
27 | CC1=C(C(=O)Nc2cccc(F)c2)C(c2ccsc2)C2=C(O)CC(C)(C)CC2=N1 (stereo not shown) | -2.64
28 | COc1ccc(-c2noc(CC(=O)N3CCN(Cc4ccc5c(c4)OCO5)CC3)n2)cc1 | 5.34
